PubChem BioAssay AID588453 (National Center for Advancing Translational Sciences (NCATS), 2011)
Out of some 390,000 compounds screened, about 4,000 (1%) were called active. This list was built around the results that the source calls inconclusive (neither active nor inactive); the mix of calls is not that of the screen. The call rests on the fitted dose curve; in most records, active means well fitted inhibition curve with a large enough effect; inconclusive means small, poorly fitted or top-dose-only effect; inactive means no such curve, though single readings can be large or run the other way. Potencies of inconclusive entries are doubtful fits and often do not repeat.

molecular target: Thioredoxin reductase 1, cytoplasmic (Rattus norvegicus) (UniProt O89049); assay: qHTS Assay for Inhibitors of Mammalian Selenoprotein Thioredoxin Reductase 1 (TrxR1): qHTS; settings: recombinant rTrxR1, NADPH fluorescence consumption, selenite substrate; series mostly up to 114 µM; activity change, negative = inhibition: at the top concentration; further: nearly all actives have a fitted effect of over 65% in size
Summary of the method: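 Rat TrxR1 (90 nM in the dispensed reagent) was pre-reduced with 400 uM NADPH for 5 min at room temperature, then incubated with compound for 15 min. After 400 uM selenite was added, NADPH fluorescence (Ex 340/Em 450 nm) was followed for 8 min.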
On the % scale 0 is the no-effect control and ±100 the full control effect; potency means the concentration at half of the fitted maximal effect; tags describe the fitted curve by direction and shape.

Sequence of UniProt O89049 (O89049 whole entry, looked up): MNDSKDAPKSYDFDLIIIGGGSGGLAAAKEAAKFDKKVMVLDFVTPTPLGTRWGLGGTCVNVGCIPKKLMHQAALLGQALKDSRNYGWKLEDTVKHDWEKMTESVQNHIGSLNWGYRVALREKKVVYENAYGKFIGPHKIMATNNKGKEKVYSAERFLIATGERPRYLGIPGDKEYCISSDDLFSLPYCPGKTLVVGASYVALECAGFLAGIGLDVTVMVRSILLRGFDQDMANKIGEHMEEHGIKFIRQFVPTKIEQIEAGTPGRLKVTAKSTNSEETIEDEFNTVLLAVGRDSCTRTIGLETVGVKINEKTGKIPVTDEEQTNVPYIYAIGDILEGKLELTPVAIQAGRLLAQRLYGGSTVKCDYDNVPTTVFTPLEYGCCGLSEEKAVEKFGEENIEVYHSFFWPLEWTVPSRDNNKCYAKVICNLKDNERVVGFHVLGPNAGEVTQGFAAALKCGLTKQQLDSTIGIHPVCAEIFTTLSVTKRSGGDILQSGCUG

Structure (SMILES)	Potency	activity change, negative = inhibition
O=C(COC(=O)c1c2c(nc3ccccc13)/C(=C\c1ccco1)CC2)NC1CCCC1	inconclusive: 44.7 µM [inhibitor, partial curve, poor fit]	
COc1ccc(NC(=O)CCc2nnc3ccc(NCc4ccco4)nn23)cc1OC	inconclusive: 11.2 µM [inhibitor, full curve]	
Cc1cccc(N2CCN(c3cc(C)nc4nnnn34)CC2C)c1 (stereo not drawn)	active: 31.6 µM	
Cc1ccc(SCC(c2ccccc2)N2CCN(C)CCC2=O)cc1 (stereo not drawn)	inconclusive: 70.8 µM [inhibitor, single point]	
O=C(NCCCN1CCCC1=O)C1CCN(S(=O)(=O)c2ccccc2)CC1		inactive: 16.4%
CC[N+]1(CC(=O)c2ccc(Br)cc2)CCCCC1		inactive: 7.54%
O=C(CCN1C(=O)/C(=C\c2cccs2)SC1=S)Nc1ccccn1	inconclusive: 25.1 µM [inhibitor, partial curve, poor fit]	
CCC(C)C(=O)Nc1nc(C)c(-c2csc(Nc3ccc(Cl)cc3)n2)s1 (stereo not drawn)		inactive: 4.23% [at 57.1 µM]
CC[C@@H]1C=C(C(=O)O)[C@H](c2ccc(Br)cc2)N1S(=O)(=O)c1ccc(C)cc1	inconclusive: 79.4 µM [inhibitor, single point]	
Cc1[nH]c(SCC(=O)Nc2cc(C(N)=O)cc(C(N)=O)c2)nc1Cc1ccccc1	inconclusive: 79.4 µM [inhibitor, single point]	
COc1ccc(NS(=O)(=O)c2ccc(NC(=S)NC(=O)c3ccc(Br)cc3)cc2)nn1	inconclusive: 10 µM [inhibitor, partial curve, poor fit]	
CCN(CC)CCCN1C(=O)C(=O)/C(=C(/O)c2ccc3c(c2)OCCO3)C1c1ccco1 (stereo not drawn)	inconclusive: 44.7 µM [inhibitor, partial curve]	
N#Cc1c(-c2ccncc2)c2c([nH]c1=S)CCCC2	inconclusive: 14.1 µM [inhibitor, partial curve]	
COc1ccc(C2CC(c3ccc(Cl)cc3)Nc3nc(NC(=O)c4ccco4)nn32)cc1 (stereo not drawn)		inactive: -6.62% [at 57.1 µM]
CCOC(=O)C(=COC(=O)c1ccccc1)NC(=O)Cc1ccccc1	inconclusive: 17.8 µM [inhibitor, single point]	
CCCCCCSc1ccc(-c2nc3ccc(C)cn3c2NC2CCCCC2)cc1	inconclusive: 70.8 µM [inhibitor, partial curve, poor fit]	
CCCCC1CCCOC(C(=O)NCCNCCO)(C(F)(F)F)C1 (stereo not drawn)	inconclusive: 44.7 µM [inhibitor, single point]	
CN(C)c1cccc2c1c(NS(=O)(=O)c1cn(C)cn1)nn2C	inconclusive: 35.5 µM [inhibitor, partial curve, poor fit]	
COc1ccc(OC)c(C2CC(=O)Nc3c2c(=O)[nH]c2nc4ccccc4n32)c1 (stereo not drawn)		inactive: -7.14%
CCCCNc1oc(-c2ccc(OC)cc2)nc1S(=O)(=O)c1ccccc1	inconclusive: 56.2 µM [inhibitor, partial curve, poor fit]	
CCn1c(C)nc2cc(C(=O)N/N=C/c3ccc(O)c(O)c3O)ccc21		inactive: -6.12% [at 57.1 µM]
O=[N+]([O-])c1ccc(/C=N\NS(=O)(=O)c2ccc(F)cc2)o1	active: 31.6 µM	

Structure (SMILES)	Potency	activity change, negative = inhibition
N#Cc1c(N2CCN(C(=O)c3ccco3)CC2)nc(-c2ccccc2)c2c1CCCC2	inconclusive: 31.6 µM [inhibitor, single point]	
CCOCCCNC(=S)Nc1ccc2nc(N3CCN(CC)CC3)cc(C)c2c1	inconclusive: 79.4 µM [inhibitor, single point]	
c1ccc(COc2ncnc3c2ncn3CCCNCc2ccc3c(c2)OCO3)cc1	inconclusive: 56.2 µM [inhibitor, partial curve, poor fit]	
CC(C)(C)c1nn(-c2ccccc2)c2[nH]c(=O)c(CNCc3ccco3)cc12	inconclusive: 7.08 µM [inhibitor, partial curve]	
COc1ccccc1C(=O)N1CCN(Cc2cccnc2)CC1		inactive: -6.44%
Cc1c(C(=O)Nc2ccc(F)c(Cl)c2)sc2nc3n(c(=O)c12)CCC3		inactive: 6.46%
Cc1cc(Br)cnc1NC(=S)Nc1ccc(F)cc1F	inconclusive: 44.7 µM [inhibitor, partial curve, poor fit]	
CSc1ccccc1C(=O)N1CCN(c2ccc(F)cc2)CC1	inconclusive: 44.7 µM [inhibitor, partial curve, poor fit]	
O=[N+]([O-])c1ccc(/C=N/n2cn[nH]c2=S)cc1	inconclusive: 20 µM [inhibitor, partial curve, poor fit]	
CCOC(=O)N1CCC2(CC1)C(C#N)=C(N)Oc1c2c(C)nn1-c1cccc(Cl)c1	inconclusive: 8.91 µM [inhibitor, partial curve, poor fit]	
CC(=O)OCC1=C(C(=O)O)N2C(=O)C(NC(=O)Cc3ccccc3)C2SC1 (stereo not drawn)	inconclusive: 44.7 µM [inhibitor, partial curve]	
CCOc1ccc(NC(=O)c2cc3c(=O)n(C)c4ccccc4c3n2C)cc1	inconclusive: 79.4 µM [inhibitor, single point]	
CCNC(=O)/C(=C/c1ccco1)NC(=O)/C=C/c1ccccc1	inconclusive: 25.1 µM [inhibitor, partial curve, poor fit]	
O=C(CN1CCCCC1)Nc1cc(Cl)ccc1Cl	inconclusive: 7.08 µM [inhibitor, single point]	
CC(=O)c1ccc(NC(=O)CSc2nccn2C)cc1		inactive: 22.2%
COc1cc(C2(c3ccc(O)c(OC)c3)C(=O)Nc3c(C)cc(Br)cc32)ccc1O		inactive: 5.14% [at 57.1 µM]
CCOC(=O)c1c(C)oc2c1c1c(c3ccccc32)OCN(Cc2ccccn2)C1	inconclusive: 3.55 µM [inhibitor, full curve, poor fit]	
Cc1cc(N/N=C2\CC(C)CC(C)(C)C2)nc2ccccc12 (stereo not drawn)		inactive: 10.5%
O=C(O)CC1CC(c2ccccc2)=NO1 (stereo not drawn)		inactive: 12.4% [at 57.1 µM]
COC(=O)C1=C(C)N(CCc2ccccc2)C(=O)/C1=C\c1ccco1	inconclusive: 44.7 µM [inhibitor, partial curve]	
CCOC(=O)C(=Cc1ccccc1OC)C(=O)OCC	active: 44.7 µM	
